By IC50 is meant the dose at which the fit gives 50% viability; fits outside the tested doses are given as limits. The AUC spans the tested range (256-fold, ending at the top dose) of the same fit; the more sensitive the line, the further below 1. For part of these data: The top dose, if marked as inferred, is not printed in the source and was worked back from the curve model.
Columns and labels:
Experiment in all cases: Viability of human cancer cell lines after 72 h of drug (GDSC screen)
Bexarotene = compound: C=C(c1ccc(C(=O)O)cc1)c1cc2c(cc1C)C(C)(C)CCC2(C)C [Bexarotene]; settings: top dose 8 µM
Description: (§1)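 Human cancer cell lines in 384-well plates, medium with 10% serum, drug for 72 h over a 256-fold dose range (nine 2-fold or five 4-fold steps up to the top dose). Adherent lines were fixed and stained with the nucleic acid dye Syto60, suspension lines read with resazurin; signal relative to control wells, capped at 0 and 100%. One two-parameter sigmoid per drug and line, fitted in a mixed model over all curves with the slope shared within a line.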

NPK76-II-72-1 = compound: COc1cc(C(=O)NC2CCN(C)CC2)ccc1Nc1ncc2c(n1)N(C1CCCC1)C(C)CC(=O)N2C [NPK76-II-72-1]; settings: top dose 10.24 µM; top dose inferred
Description: as §1

Etoposide = compound: COc1cc([C@@H]2c3cc4c(cc3[C@@H](O[C@@H]3O[C@@H]5CO[C@@H](C)O[C@H]5[C@H](O)[C@H]3O)[C@H]3COC(=O)[C@H]23)OCO4)cc(OC)c1O [Etoposide]; settings: top dose 16 µM
Description: as §1

YK 4-279 = compound: COc1ccc(C(=O)CC2(O)C(=O)Nc3c(Cl)ccc(Cl)c32)cc1 [YK 4-279]; settings: top dose 10 µM
Description: as §1

BMS-345541 = compound: Cc1ccc2nc(NCCN)c3ncc(C)n3c2c1 [BMS-345541]; settings: top dose 16 µM
Description: as §1

AZD7762 = compound: NC(=O)Nc1cc(-c2cccc(F)c2)sc1C(=O)N[C@H]1CCCNC1 [AZD7762]; settings: top dose 2 µM
Description: as §1

GSK-650394 = compound: O=C(O)c1ccc(-c2c[nH]c3ncc(-c4ccccc4)cc23)cc1C1CCCC1 [GSK-650394]; settings: top dose 16 µM; top dose inferred
Description: as §1

XAV 939 = compound: Oc1nc(-c2ccc(C(F)(F)F)cc2)nc2c1CSCC2 [XAV 939]; settings: top dose 5 µM; top dose inferred
Description: as §1

Cell Line | AUC (Bexarotene) | IC50 (Bexarotene) [µM] | AUC (NPK76-II-72-1) | IC50 (NPK76-II-72-1) [µM] | AUC (Etoposide) | IC50 (Etoposide) [µM] | AUC (YK 4-279) | IC50 (YK 4-279) [µM] | AUC (BMS-345541) | IC50 (BMS-345541) [µM] | AUC (AZD7762) | IC50 (AZD7762) [µM] | AUC (GSK-650394) | IC50 (GSK-650394) [µM] | AUC (XAV 939) | IC50 (XAV 939) [µM]
8-MG-BA (glioma, adherent) | 0.912 | > 8 | 0.904 | > 10.2 | 0.152 | 0.0925 | 0.522 | 0.714 | 0.882 | 15.1 | 0.639 | 0.294 | 0.874 | 13.9 | 0.937 | > 5
42-MG-BA (glioma, adherent) | 0.961 | > 8 | 0.952 | > 10.2 | 0.835 | 11.5 | 0.744 | 3.3 | 0.96 | > 16 | 0.626 | 0.285 | 0.802 | 8.5 | 0.974 | > 5
451Lu (melanoma, adherent) | 0.918 | > 8 | 0.973 | > 10.2 | 0.863 | 12.9 | 0.731 | 2.75 | 0.908 | > 16 | 0.647 | 0.313 | 0.885 | > 16 | 0.988 | > 5
639-V (bladder, adherent) | 0.937 | > 8 | 0.905 | 10.2 | 0.531 | 1.2 | 0.727 | 2.45 | 0.989 | > 16 | 0.739 | 0.53 | 0.692 | 3.13 | 0.991 | > 5
647-V (bladder, adherent) | 0.962 | > 8 | 0.981 | > 10.2 | 0.387 |  | 0.871 | 9.51 | 0.923 | > 16 | 0.702 | 0.463 | 0.929 | > 16 | 0.94 | > 5
697 (lymphoblastic leukaemia, suspension) | 0.977 | > 8 | 0.443 | 0.461 | 0.288 | 0.292 | 0.631 | 1.33 | 0.639 | 2.22 | 0.4 | 0.0705 | 0.901 | 13.3 | 0.982 | > 5
5637 (bladder, adherent) | 0.974 | > 8 | 0.822 | 5.24 | 0.465 | 0.811 | 0.582 | 1.03 | 0.885 | 14.5 | 0.615 | 0.251 | 0.526 | 1.17 | 0.979 | > 5
CFPAC-1 (pancreas, adherent) | 0.93 | > 8 | 0.96 | > 10.2 | 0.562 | 1.52 | 0.739 | 3.39 | 0.905 | > 16 | 0.773 | 0.894 | 0.742 | 5.56 |  | 
CHP-126 (neuroblastoma, suspension) | 0.961 | > 8 | 0.908 | > 10.2 | 0.74 | 4.98 | 0.955 | > 10 |  |  | 0.472 | 0.105 | 0.969 | > 16 | 0.981 | > 5
DAN-G (pancreas, adherent) | 0.992 | > 8 | 0.969 | > 10.2 | 0.982 | > 16 | 0.773 | 3.41 | 0.891 | 14.5 | 0.796 | 0.807 | 0.992 | > 16 |  | 
EHEB (lymphoid neoplasm, suspension) | 0.931 | > 8 |  |  | 0.804 | 12.9 | 0.975 | > 10 |  |  | 0.734 | 0.807 | 0.979 | > 16 | 0.947 | > 5
GMS-10 (glioma, adherent) | 0.987 | > 8 | 0.986 | > 10.2 | 0.941 | > 16 | 0.722 | 2.65 | 0.988 | > 16 | 0.864 | 1.73 | 0.988 | > 16 |  | 
H290 (mesothelioma, adherent) | 0.982 | > 8 |  |  | 0.628 | 2.18 | 0.576 | 0.987 | 0.883 | 14.6 | 0.79 | 0.81 | 0.916 | > 16 | 0.94 | > 5
HCC2998 (large intestine, adherent) | 0.947 | > 8 | 0.932 | > 10.2 | 0.514 | 1.09 | 0.477 | 0.541 | 0.882 | > 16 | 0.734 | 0.567 | 0.891 | > 16 |  | 
IM-9 (myeloma, suspension) | 0.99 | > 8 |  |  | 0.917 | > 16 | 0.585 | 1.03 |  |  | 0.884 | 1.65 | 0.954 | > 16 | 0.982 | > 5
IST-SL2 (small cell lung carcinoma, suspension) | 0.98 | > 8 |  |  | 0.497 | 0.981 | 0.945 | > 10 | 0.845 | 11.4 | 0.865 | 1.74 | 0.843 | 11.2 | 0.955 | > 5

Cell Line | AUC (Bexarotene) | IC50 (Bexarotene) [µM] | AUC (NPK76-II-72-1) | IC50 (NPK76-II-72-1) [µM] | AUC (Etoposide) | IC50 (Etoposide) [µM] | AUC (YK 4-279) | IC50 (YK 4-279) [µM] | AUC (BMS-345541) | IC50 (BMS-345541) [µM] | AUC (AZD7762) | IC50 (AZD7762) [µM] | AUC (GSK-650394) | IC50 (GSK-650394) [µM] | AUC (XAV 939) | IC50 (XAV 939) [µM]
JHU-011 (head and neck, adherent) | 0.973 | > 8 | 0.767 | 3.75 | 0.35 | 0.386 | 0.637 | 1.48 | 0.712 | 3.93 | 0.576 | 0.201 | 0.687 | 3.3 |  | 
JHU-029 (head and neck, adherent) | 0.95 | > 8 |  |  | 0.427 | 0.602 | 0.664 | 2 |  |  | 0.694 | 0.5 | 0.783 | 8.42 | 0.943 | > 5
KMRC-1 (kidney, adherent) | 0.986 | > 8 | 0.987 | > 10.2 | 0.913 | > 16 | 0.83 | 6.78 | 0.98 | > 16 | 0.791 | 0.959 | 0.984 | > 16 |  | 
LOUCY (T-cell lymphoblastic leukaemia, suspension) | 0.887 | 6.11 | 0.577 | 0.996 | 0.221 | 0.188 | 0.732 | 2.46 | 0.282 | 0.278 | 0.739 | 0.513 |  |  | 0.981 | > 5
LU-65 (large cell lung carcinoma, suspension) | 0.978 | > 8 | 0.853 | > 10.2 | 0.883 | > 16 | 0.985 | > 10 | 0.842 | 14.3 | 0.987 | > 2 | 0.942 | > 16 |  | 
MKN45 (stomach, adherent) | 0.983 | > 8 | 0.959 | > 10.2 | 0.588 | 1.86 | 0.725 | 3.28 | 0.655 | 3.02 | 0.634 | 0.325 |  |  | 0.944 | > 5
NB1 (neuroblastoma, semi-adherent) | 0.957 | > 8 | 0.933 | > 10.2 | 0.781 | 7.35 | 0.808 | 5.83 |  |  | 0.62 | 0.277 | 0.942 | > 16 | 0.982 | > 5
NB-4 (acute myeloid leukaemia, suspension) | 0.965 | > 8 | 0.214 | 0.114 | 0.29 | 0.291 | 0.432 | 0.422 | 0.56 | 1.42 | 0.377 | 0.0614 |  |  | 0.991 | > 5
NEC8 (testis, adherent) | 0.99 | > 8 | 0.893 | 8.92 | 0.413 | 0.602 | 0.796 | 3.88 | 0.784 | 5.74 | 0.34 | 0.0487 | 0.933 | > 16 |  | 
NH-12 (neuroblastoma, adherent) | 0.985 | > 8 | 0.844 | 8.65 | 0.503 | 1.02 | 0.477 | 0.536 | 0.869 | > 16 | 0.675 | 0.41 | 0.766 | 6.59 |  | 
PANC-04-03 (pancreas, adherent) | 0.969 | > 8 | 0.971 | > 10.2 | 0.843 | > 16 | 0.826 | > 10 | 0.953 | > 16 | 0.814 | > 2 | 0.809 | 15.8 |  | 
RERF-LC-Sq1 (lung squamous cell carcinoma, adherent) | 0.978 | > 8 | 0.946 | > 10.2 | 0.976 | > 16 | 0.814 | 9.1 | 0.809 | 13.8 | 0.521 | 0.146 |  |  | 0.906 | > 5
SCC90 (head and neck, adherent) | 0.902 | > 8 |  |  | 0.841 | > 16 | 0.711 | 3.22 | 0.853 | > 16 | 0.675 | 0.476 | 0.894 | > 16 | 0.975 | > 5
SNU-182 (liver, adherent) | 0.922 | > 8 | 0.924 | > 10.2 | 0.539 | 1.28 | 0.819 | 6 | 0.853 | 13.4 | 0.465 | 0.1 |  |  | 0.91 | > 5
STS-0421 (soft tissue, adherent) | 0.978 | > 8 |  |  | 0.635 | 2.53 | 0.733 | 3.28 | 0.794 | 8.82 | 0.543 | 0.167 | 0.9 | > 16 | 0.836 | 4.13

Source: the supplement of paper PMC4967469
